Reference: a collection of fitness landscapes (doi:10.1016/j.celrep.2020.107928)
Over roughly 81,000 sequences, “one-hybrid fitness for binding parS DNA” has its median near -0.17; the highest 2% begin near 0.51. The list shows a part of the results.

B1: Caulobacter ParB omega fusion; a variant is named by its letters at X, in order, B8GW30 (parent)
chain: MESVVVGEPGMSEGRRGLGRGLSALLGEVDAAPAQAPGEQLGGSREAPIEILQRNPDQPRRTFREEDLEDLSNSIREKGVLQPILVRPSPDTAGEYQIVAGERAWRAAQRAGLKTVPIMVRELDDLAVLEIGIIENVQRADLNVLEEALSYKVLMEKFERTQENIAQTIGKSXSHVANXMRLLXLPDEVQSYLVSGELTAXHARAIAAAADPVALAKQIIEGGLSVRETEALARKAPNLSAGKSKGGRPPRVKDTDTQALESDLSSVLGLDVSIDHRGSTGTLTITYATLEQLDDLCNRLTRGI

Variants of: B1
Assay: one-hybrid fitness for binding parS DNA (scaled: cognate 1, non-cognate 0); higher = stronger binding
Settings: with parS DNA site
Method in brief: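 Bacterial one-hybrid selection in E. coli USO rpoZ- hisB- pyrF- with a HIS3 reporter carrying the site 19 bp from the promoter, screening Caulobacter ParB libraries with four specificity codons randomised (NNS). Cells grew 48 hours at 37°C on M9-minus-histidine plus 0.1 mM IPTG and 5 mM 3-AT. Plasmids before and after selection were Illumina-sequenced, three replicate libraries pooled, and variants under 10 reads dropped. Fitness is the log change in variant-to-wild-type read ratio, rescaled to cognate 1, non-cognate 0.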

Variant	one-hybrid fitness for binding parS DNA
VLAT	≤ 0.2
EHDS	≤ 0.2
VTNM	≤ 0.2
IRMF	≤ 0.2
QRDA	≤ 0.2
NLES	≤ 0.2
FPPW	≤ 0.2
HPRM	≤ 0.2
RQLH	≤ 0.2
EQNG	≤ 0.2
RWKM	0.377
SGYD	≤ 0.2
MPRD	≤ 0.2
DHVC	≤ 0.2
HVPW	≤ 0.2
WNLA	≤ 0.2
LILY	≤ 0.2
DETG	≤ 0.2
STRS	≤ 0.2
RQFA	0.532
TMKW	≤ 0.2
HVSR	≤ 0.2
EYTG	≤ 0.2
HRQY	≤ 0.2

Variant	one-hybrid fitness for binding parS DNA
HISE	≤ 0.2
HIHC	≤ 0.2
FSSG	≤ 0.2
MSTM	≤ 0.2
GKRV	≤ 0.2
HMPG	≤ 0.2
NTTR	≤ 0.2
NYWT	≤ 0.2
CNGR	≤ 0.2
TAGK	≤ 0.2
CPIT	≤ 0.2
AVRM	≤ 0.2
AIAS	≤ 0.2
LYAW	≤ 0.2
RAHQ	≤ 0.2
GHPN	≤ 0.2
MGLS	≤ 0.2
RPKF	≤ 0.2
HLYV	≤ 0.2
GFWM	≤ 0.2
ANHV	≤ 0.2
PPFR	≤ 0.2
GLAM	≤ 0.2
FQSA	≤ 0.2

Variant	one-hybrid fitness for binding parS DNA
GGAT	≤ 0.2
NLAP	≤ 0.2
RGIQ	≤ 0.2
PFMM	≤ 0.2
TAYT	≤ 0.2
LWVR	≤ 0.2
AVGL	≤ 0.2
APNG	≤ 0.2
HFQS	≤ 0.2
WPNH	≤ 0.2
PHDM	≤ 0.2
QEHL	≤ 0.2
WQRY	≤ 0.2
TELG	≤ 0.2
NVCC	≤ 0.2
RYEN	0.348
MAPW	≤ 0.2
HRQM	≤ 0.2
KLQS	≤ 0.2
SYDV	≤ 0.2
EPTM	≤ 0.2
RICY	0.492
SSGC	≤ 0.2
RYHI	≤ 0.2

Variant	one-hybrid fitness for binding parS DNA
YEKR	≤ 0.2
TGVI	≤ 0.2
RSKS	0.883
SMLY	≤ 0.2
GIHC	≤ 0.2
VKRW	≤ 0.2
PSVY	≤ 0.2
FHAR	≤ 0.2
EARK	≤ 0.2
PIHP	≤ 0.2
RYHD	≤ 0.2
NREC	≤ 0.2
MFWS	≤ 0.2
NCAW	≤ 0.2
SFHR	≤ 0.2
YTHE	≤ 0.2
GMKI	≤ 0.2
QGYA	≤ 0.2
SIWC	≤ 0.2
LMCR	≤ 0.2
HQVS	≤ 0.2
GEMS	≤ 0.2
GFPS	≤ 0.2
PPRC	≤ 0.2

Variant	one-hybrid fitness for binding parS DNA
SAEL	≤ 0.2
FPSL	≤ 0.2
RDWR	≤ 0.2
DQMT	≤ 0.2
VRRT	≤ 0.2
EKGT	≤ 0.2
RETD	≤ 0.2
GVHG	≤ 0.2
PDRW	≤ 0.2
MLVR	≤ 0.2
HSYW	≤ 0.2
SINK	≤ 0.2
VTRF	≤ 0.2
RALF	0.246
ERPD	≤ 0.2
PGCC	≤ 0.2
DTYT	≤ 0.2
PSEE	≤ 0.2
VNEF	≤ 0.2
VDVD	≤ 0.2
LQVS	≤ 0.2
LMVG	≤ 0.2
VLMH	≤ 0.2
YMGG	≤ 0.2

Variant	one-hybrid fitness for binding parS DNA
AMTT	≤ 0.2
GTTF	≤ 0.2
TTAA	≤ 0.2
SRRE	≤ 0.2
QSIW	≤ 0.2
QTAY	≤ 0.2
KSVC	≤ 0.2
RFHG	0.974
MFAR	≤ 0.2
LFNR	≤ 0.2
RYEY	0.434
FMNS	≤ 0.2
VLKL	≤ 0.2
YWLA	≤ 0.2
QQTG	≤ 0.2
FLSM	≤ 0.2
KNAE	≤ 0.2
RFHI	≤ 0.2
PDHV	≤ 0.2
KDWS	≤ 0.2
NSSV	≤ 0.2
QKMI	≤ 0.2
DTTI	≤ 0.2
NKSD	≤ 0.2

Variant	one-hybrid fitness for binding parS DNA
QTMA	≤ 0.2
DHPS	≤ 0.2
QFYN	≤ 0.2
SFPG	≤ 0.2
GHNT	≤ 0.2
HATL	≤ 0.2
VRFT	≤ 0.2
RAPR	≤ 0.2
LHNS	≤ 0.2
CQQG	≤ 0.2
FTPD	≤ 0.2
DSHP	≤ 0.2
TRIC	≤ 0.2
ATID	≤ 0.2
RLCV	≤ 0.2
RMAP	0.205
RMAS	0.991
DAVR	≤ 0.2
HITT	≤ 0.2
MDAY	≤ 0.2
TQVR	≤ 0.2
DFQA	≤ 0.2
NNGC	≤ 0.2
GHVS	≤ 0.2

Variant	one-hybrid fitness for binding parS DNA
SWNT	≤ 0.2
ENIG	≤ 0.2
WAFG	≤ 0.2
CLEI	≤ 0.2
PPYY	≤ 0.2
PTTY	≤ 0.2
KRYL	≤ 0.2
PSEC	≤ 0.2
QYYC	≤ 0.2
KNKS	≤ 0.2
SLHG	≤ 0.2
HRDS	0.213
RSQE	≤ 0.2
KSNC	≤ 0.2
DCRY	≤ 0.2
KVNG	≤ 0.2
SPRH	≤ 0.2
TLMD	≤ 0.2
SRIK	≤ 0.2
CHDC	≤ 0.2
HPTP	≤ 0.2
RLVE	≤ 0.2
CAKS	≤ 0.2
HAKD	≤ 0.2

Variant	one-hybrid fitness for binding parS DNA
THTE	≤ 0.2
ICYG	≤ 0.2
RAYD	≤ 0.2
PCVA	≤ 0.2
NMTI	≤ 0.2
RRKD	≤ 0.2
MTQD	≤ 0.2
HPIS	≤ 0.2
VKPV	≤ 0.2
WLMS	≤ 0.2
IDPR	≤ 0.2
KHKH	≤ 0.2
PIPL	≤ 0.2
RRHI	≤ 0.2
SVYW	≤ 0.2
RPKP	≤ 0.2
PWMI	≤ 0.2
PQPT	≤ 0.2
TLWA	≤ 0.2
NQCG	≤ 0.2
PWDI	≤ 0.2
IGLG	≤ 0.2
QGKY	≤ 0.2
CGYR	≤ 0.2

Variant	one-hybrid fitness for binding parS DNA
PCML	≤ 0.2
PQHA	≤ 0.2
LSIC	≤ 0.2
WETS	≤ 0.2
EPDA	≤ 0.2
RTQS	0.951
NEDG	≤ 0.2
YWPM	≤ 0.2
ETFT	≤ 0.2
SVGL	≤ 0.2
VLCR	≤ 0.2
EDRR	0.303
AHQF	≤ 0.2
GLIL	≤ 0.2
MSRH	≤ 0.2
RFHF	≤ 0.2
DRWL	≤ 0.2
SALI	≤ 0.2
VVFR	≤ 0.2
GNPC	≤ 0.2
MGPV	≤ 0.2
RDIG	≤ 0.2
AFRH	≤ 0.2
SQKR	≤ 0.2

Variant	one-hybrid fitness for binding parS DNA
LRPA	≤ 0.2
SRMI	≤ 0.2
LSVY	≤ 0.2
YSCE	≤ 0.2
KMIK	≤ 0.2
SRNN	≤ 0.2
MTHA	≤ 0.2
RECC	≤ 0.2
HRDQ	≤ 0.2
FDSW	≤ 0.2
QRSE	≤ 0.2
TFDK	≤ 0.2
LIAT	≤ 0.2
AGQN	≤ 0.2
RFPS	0.551
NRWC	≤ 0.2
MVSE	≤ 0.2
PSPE	≤ 0.2
ANNL	≤ 0.2
DWEL	≤ 0.2
FWPW	≤ 0.2
SPQR	≤ 0.2
CDPS	≤ 0.2
LTTC	≤ 0.2

Variant	one-hybrid fitness for binding parS DNA
AREC	≤ 0.2
SDKW	≤ 0.2
KTNI	≤ 0.2
CIWR	≤ 0.2
TIAL	≤ 0.2
VHGG	≤ 0.2
SFVS	≤ 0.2
NIVV	≤ 0.2
EQYP	≤ 0.2
VWAF	≤ 0.2
AEPI	≤ 0.2
RNPS	0.478
GPIT	≤ 0.2
IYQG	≤ 0.2
GTQR	≤ 0.2
YICG	≤ 0.2
LTYL	≤ 0.2
LNVP	≤ 0.2
SSAV	≤ 0.2
DVRV	≤ 0.2
RNRC	0.893
WTRC	≤ 0.2
WNKT	≤ 0.2
DKVS	≤ 0.2

Variant	one-hybrid fitness for binding parS DNA
CRVG	≤ 0.2
KRCW	≤ 0.2
THDY	≤ 0.2
RREI	≤ 0.2
YFSY	≤ 0.2
QVTD	≤ 0.2
SFEW	≤ 0.2
DNMC	≤ 0.2
ANES	≤ 0.2
HQSD	0.269
NEYG	≤ 0.2
VFNT	≤ 0.2
NSLC	≤ 0.2
SRGT	≤ 0.2
RGNA	0.394
RWVN	≤ 0.2
RCPW	≤ 0.2
MRCF	≤ 0.2
